Test results reported in PubChem BioAssay (Tox21).
Values joined by “and” are separate entries in the source; they are usually repeats but may differ in a detail not shown here. Equal values may be shown once. The shares of active, inactive and inconclusive entries below differ from those in the screen. Where the call is inconclusive, the potency comes from a doubtful curve fit. More than one record can exist for a structure, and the calls need not agree. Active and inactive are the calls of the source. Calls follow the shape of the dose curve; as a rule, active = well fitted cell-killing curve with a large enough effect in the repeat runs; inconclusive = weak or mixed curves, or effect the other way; inactive = no such curve, though single readings can be large or run the other way.

Assay: qHTS assay to identify small molecule antagonists of the glucocorticoid receptor (GR) signaling pathway - cell viability counter screen (AID 720693); also: nearly all actives have a fitted effect of over 55% in size
Conditions: GR-bla HeLa viability, CellTiter-Glo luminescence, 18 h, with 5 nM dexamethasone present; viability change, negative = cytotoxic: at 58.5 µM (top of the series) unless noted
Excerpt: National Center for Advancing Translational Sciences [NCATS]
NIH Chemical Genomics Center [NCGC]
U.S. Environmental Protection Agency [EPA]
National Institutes of Environmental Health Sciences [NIEHS]
National Toxicology Program [NTP]
U.S. Food and Drug Administration [FDA]
The Glucocorticoid receptor (GR) is one of the members of the nuclear receptor family of ligand-dependent transcription factors. GR plays a critical role in carbohydrate, protein and lipid metabolisms and programmed cell death. CellSensor GR-bla HeLa cell line (Invitrogen) contains a beta-lactamase reporter gene under the control of the glucocorticoid response element stably integrated into HeLa cells, a cervical cancer cell line that expresses glucocorticoid receptor. The activation of the reporter gene under culture conditions can be detected by fluorescence intensity. This cell line has been used to screen the Tox21 10K compound library and to identify the compounds that inhibit the GR signaling. The cytotoxicity of the Tox21 compound library against the GR-bla HeLa cell line was tested in parallel by measuring the cell viability using CellTiter-Glo assay in the same wells.
Tox21 Assay Protocol Summary:
The GR-bla HeLa cells were dispensed at 1500 cells/5 ul/well in 1536-well black wall/clear bottom plates using a Multidrop Combi (ThermoFisher Scientific, Waltham, MA) dispenser. After the assay plates were incubated at a 37 C/5% CO2 incubator for 4 hours, 23 nL of compounds dissolved in DMSO, positive controls or DMSO only was transferred to the assay plate by a pintool station (Kalypsys, San Diego, CA), followed by addition of 1 uL of dexamethasone (5 nM, final concentration in the well). The plates were incubated at 37 C for 18 hours. After 1 uL of LiveBLAzerTM B/G FRET substrate was added using a Flying Reagent Dispenser (Aurora Discovery, San Diego, CA), the plates were incubated at room temperature (RT) for 2 hours, and fluorescence intensity was measured by an Envision plate reader (PerkinElmer, Shelton, CT). After measurement of bla assay, 3 ul CellTiter-Glo (Promega, Madison, WI) was added to measure the cytotoxicity and the plates were then incubated at RT for 30 min. The luminescence was measured using a ViewLux (Perkin Elmer) plate reader.
% is scaled to controls: 0 for no effect and ±100 for the full control effect; potency is read from the fitted curve at half-maximal effect; tags tell the direction and shape of the fitted curve.

SMILES | Potency | viability change, negative = cytotoxic
CCCC[N+]1(C)CCCCC1 | inactive | 
O=[N+]([O-])O | inactive | 
Nc1cccc2ccccc12 | inconclusive: 24.7 µM [cytotoxic, partial curve, poor fit] | 
CCOCCOC(C)=O | inconclusive: 43.6 µM [rising, partial curve, poor fit] | 
C[C@]12CCC(=O)C=C1CC[C@@H]1[C@@H]2CC[C@@]2(C)[C@H]1CC[C@]2(C)O | inconclusive: 23.9 µM [cytotoxic, single point] and inconclusive: 19 µM [cytotoxic, partial curve] and active: 15.5 µM | 
Cc1ccc(N=CN(C)C=Nc2ccc(C)cc2C)c(C)c1 | inconclusive: 61.9 µM [cytotoxic, single point] and inconclusive: 61.6 µM [cytotoxic, single point] | 
Nc1ccc(Cc2ccc(N)c(Cl)c2)cc1Cl | active: 53.1 µM | 
C[N+](C)(C)C | inactive | 
C#CCC1=C(C)C(OC(=O)C2C(C=C(C)C)C2(C)C)CC1=O (stereo not given) | inconclusive: 54.6 µM [cytotoxic, single point] | 
CCCCN(CCCC)C(=S)S | inconclusive: 61.6 µM [rising, partial curve, poor fit] | 
CCCCCCCCCCCCN=C(N)N |  | inactive: -13.6% [at 3.15 µM]
NCCc1cc(O)c(O)cc1O |  | inactive: -0.173%
O=c1oc2ccccc2c(O)c1Cc1c(O)c2ccccc2oc1=O | inconclusive: 2.04 µM [cytotoxic, full curve] | 
CN(C)C(=O)Nc1ccc(Cl)cc1 | inactive | 
c1coc(-c2nc3ccccc3[nH]2)c1 | inconclusive: 43.6 µM [cytotoxic, partial curve] | 
O=S(=O)(O)C(F)(F)C(F)(F)C(F)(F)C(F)(F)C(F)(F)C(F)(F)C(F)(F)C(F)(F)F | inconclusive: 0.195 µM [rising, single point] | 
c1ccc(N=Nc2ccccc2)cc1 | inconclusive: 61.6 µM [rising, partial curve, poor fit] | 
COC(=O)N(OC)c1ccccc1COc1ccn(-c2ccc(Cl)cc2)n1 | inconclusive: 0.776 µM [cytotoxic] | 
CCC(C)(NC(=O)c1cc(Cl)c(C)c(Cl)c1)C(=O)CCl (stereo not given) | active: 43.9 µM | 
O=C(O)C(Br)CBr (stereo not given) |  | inactive: -0.964% [at 78.9 µM]

SMILES | Potency | viability change, negative = cytotoxic
CCOP(=O)(O)OCC (tested in a mixture with another compound) | inconclusive: 55.5 µM [rising, single point] | 
Nc1ccc(-c2ccc(N)c(Cl)c2)cc1Cl | inconclusive: 39.1 µM [cytotoxic, partial curve] and inconclusive: 45.7 µM [cytotoxic, partial curve] | 
O=S(=O)(c1ccc(Cl)cc1)c1ccc(Cl)cc1 |  | inconclusive: 40.2% [at 78.9 µM]
NNc1ccccc1 | inconclusive: 54.3 µM [cytotoxic, single point] and inconclusive: 24.5 µM [cytotoxic, partial curve] | 
Nc1ccc(Cl)c(Cl)c1 | inconclusive: 0.436 µM [rising, full curve, poor fit] | 
Cc1cccc(N)c1C | inactive | 
C[C@]12C=CC(=O)C=C1CC[C@@H]1[C@@H]2CC[C@@]2(C)[C@H]1CC[C@]2(C)O | inconclusive: 0.0095 µM [rising, full curve, poor fit] | 
O=C(NC(=O)c1c(F)cccc1F)Nc1cc(Cl)c(Oc2ncc(C(F)(F)F)cc2Cl)c(Cl)c1 | inconclusive: 21 µM [cytotoxic, full curve] | 
CC(C)(C)c1cc([N+](=O)[O-])cc([N+](=O)[O-])c1O | active: 1.09 µM | 
Nc1ccc(N=Nc2ccccc2)cc1 | inconclusive: 21.9 µM | 
[Cl][Sb]([Cl])[Cl] |  | inactive: 7.38%
CC1(C)CCC(Cc2ccc(Cl)cc2)C1(O)Cn1cncn1 (stereo not given) | inconclusive: 54.9 µM [cytotoxic, single point] | 
CCOP(=S)(OCC)Oc1ccc(Cl)cc1Cl |  | inactive: 8.43%
CCOCn1c(-c2ccc(Cl)cc2)c(C#N)c(Br)c1C(F)(F)F | active: 3.47 µM | 
C[N+](C)(C)CCCl | inconclusive: 5.02 µM [rising, single point] | 
CC(=O)[O-].CC(=O)[O-].O.O.[Cd+2] | inconclusive: 54.2 µM [cytotoxic] | 
CC[C@H](C)[C@H]1O[C@]2(C=C[C@@H]1C)C[C@@H]1C[C@@H](C/C=C(\C)[C@@H](O[C@H]3C[C@H](OC)[C@@H](O[C@H]4C[C@H](OC)[C@@H](NC)[C@H](C)O4)[C@H](C)O3)[C@@H](C)/C=C/C=C3\CO[C@@H]4[C@H](O)C(C)=C[C@@H](C(=O)O1)[C@]34O)O2 | active: 12.3 µM | 
NCCOS(=O)(=O)O | inconclusive: 2.19 µM [rising, full curve] | 
CC(=O)[O-].CC(=O)[O-].[Hg+2] | active: 6.16 µM | 
Clc1cccc2ccccc12 |  | inactive: 21%
